The other results are listed elsewhere or left out. These are further read-outs of the screen, such as a control signal, another cell line or another target. No call is given for them.
Columns and labels:
Experiment in all cases: Primary Screen for Target Class Profiling of Small Molecule Inhibitors of Methyltransferases
[1] = biological target: Glycine N-methyltransferase (Homo sapiens) (UniProt Q14749); conditions: purified enzyme, MTase-Glo SAH luminescence; measured here: GNMT inhibition; at 40 µM; stronger effect = lower value
Procedure, shortened: (§1)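 Each enzyme was assayed with SAM and its substrate. SAH formation detected by MTase-Glo luminescence; single-point 40 uM screen[…].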

[2] = biological target: Guanidinoacetate N-methyltransferase (Homo sapiens) (UniProt Q14353); conditions: purified enzyme, MTase-Glo SAH luminescence; measured here: GAMT inhibition; at 40 µM; stronger effect = lower value
Procedure, shortened: as §1

[3] = biological target: Histamine N-methyltransferase (Homo sapiens) (UniProt P50135); conditions: purified enzyme, MTase-Glo SAH luminescence; measured here: HNMT inhibition; at 40 µM; stronger effect = lower value
Procedure, shortened: as §1

[4] = biological target: Nicotinamide N-methyltransferase (Homo sapiens) (UniProt P40261); conditions: purified enzyme, MTase-Glo SAH luminescence; measured here: NNMT inhibition; at 40 µM; stronger effect = lower value
Procedure, shortened: as §1

[5] = biological target: Phenylethanolamine N-methyltransferase (Homo sapiens) (UniProt P11086); conditions: purified enzyme, MTase-Glo SAH luminescence; measured here: PNMT inhibition; at 40 µM; stronger effect = lower value
Procedure, shortened: as §1
% is scaled to controls: 0 for no effect and ±100 for the full control effect.

| SMILES | activity change, negative = inhibition [1] | activity change, negative = inhibition [2] | activity change, negative = inhibition [3] | activity change, negative = inhibition [4] | activity change, negative = inhibition [5] |
| --- | --- | --- | --- | --- | --- |
| O=C(/C=C/c1ccccc1)O[C@@H]1[C@@H](CO)O[C@@](CO)(O[C@H]2O[C@H](CO)[C@@H](O)[C@H](O)[C@H]2O)[C@H]1O | 1.97% | 6.77% | 4.84% | -5.58% | 4.67% |
| CCCCc1nc(C)c(CC(=S)N(C)C)c(=O)n1Cc1ccc(-c2ccccc2-c2nn[nH]n2)cc1 | -6.76% | -9.99% | 7.92% | -28.4% | -6.08% |
| CCN1C(=O)c2cc(C(=O)NCCCN3CCc4ccccc4C3)nn2CC1(C)C(=O)NC1CCCC1 (stereo not given) | 4.24% | 0.056% | -3.71% | 11.7% | 2.39% |
| CC(C)(C)c1cc2n(n1)CC(C)(C(=O)NCc1ccccc1)N(Cc1ccccc1Cl)C2=O (stereo not given) | 4.9% | 0% | 5.21% | -6.44% | 3.95% |
| COc1cccc(CNC(=O)Cn2nc3n(Cc4ccccc4)c(=O)c4ccccc4n3c2=O)c1 | 1.77% | 0% | 3.05% | 1.44% | 1.89% |
| CC1=C(C(=O)O)/C(=C\CO[C@@H]2O[C@H](CO)[C@@H](O)[C@H](O)[C@H]2O)C(OC(=O)/C=C\c2ccc(O)cc2)C1 (stereo not given in full) | 3.34% | 1.92% | 7.42% | -8.84% | -0.254% |
| Cc1ccc(C)c(C(=O)CSc2nnc3n(CC(C)C)c(=O)c4ccc(C(=O)NC(C)C)cc4n23)c1 | 2.87% | -1.21% | 2.47% | 12.7% | 4.65% |
| COc1ccccc1CCN1C(=O)c2ccc(-c3ccco3)n2CC1(C)C(=O)NC1CCCCC1 (stereo not given) | -5.16% | 0% | -1.58% | -4.44% | -2.98% |
| COCCCN1C(=O)c2cc3occc3n2CC1(C)C(=O)NC1CCCCCC1 (stereo not given) | 0.559% | 3.23% | -2.25% | 4.63% | -2.61% |
| CCc1cc2c(cc3n2CC(C)(C(=O)NC2CCCCC2)N(c2cccc(OC)c2)C3=O)s1 (stereo not given) | -1.52% | 3.63% | -4.66% | -5.22% | -9.25% |
| COc1cncc(Nc2cnc3ccc(N(C)Cc4ccc(F)cc4)nn23)c1 | -27.8% | -17.6% | -41.2% | -36% | -10.3% |
| CC1(C(=O)NC2CCCCC2)Cn2c(cc3sccc32)C(=O)N1C1CCCCCC1 (stereo not given) | 4.17% | 0.337% | 5.2% | 2.98% | 1.46% |
| Cc1ccccc1CN1C(=O)c2cc3occc3n2CC1(C)C(=O)NC1CCC(C)CC1 (stereo not given) | 3.75% | -4.12% | 6.94% | 3.07% | 4.27% |
| COc1cc2ncnc(N3CCC(Oc4cnc5ccccc5n4)C3)c2cc1OC (stereo not given) | -3.28% | 11.7% | -2.42% | -14.2% | -9.6% |
| COC(=O)C1=CO[C@@H](O[C@@H]2O[C@H](CO)[C@@H](O)[C@H](O)[C@H]2O)[C@@H]2[C@@](C)(O)[C@@H](O)C[C@]12O | 0.281% | 3.48% | -0.167% | -5.58% | 1.39% |

— PubChem BioAssay AID1745853 (National Center for Advancing Translational Sciences (NCATS), 2022)
